{"source": "paper PMC4336329", "about": "(PLoS ONE, 2015)", "note": "Hit rate of the full screen: of about 310,000 compounds, about 14,000 (4.5%) showed an effect of 50% or more. Effects have a minus sign here. Some of the results follow.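 Note: peak tail current of the secondary pulse compared with the same well before compound.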", "data": [{"molecular_target": "human ether-à-go-go-related gene (hERG) potassium channel (human, UniProt Q12809)", "sequence (Q12809 whole entry, looked up)": "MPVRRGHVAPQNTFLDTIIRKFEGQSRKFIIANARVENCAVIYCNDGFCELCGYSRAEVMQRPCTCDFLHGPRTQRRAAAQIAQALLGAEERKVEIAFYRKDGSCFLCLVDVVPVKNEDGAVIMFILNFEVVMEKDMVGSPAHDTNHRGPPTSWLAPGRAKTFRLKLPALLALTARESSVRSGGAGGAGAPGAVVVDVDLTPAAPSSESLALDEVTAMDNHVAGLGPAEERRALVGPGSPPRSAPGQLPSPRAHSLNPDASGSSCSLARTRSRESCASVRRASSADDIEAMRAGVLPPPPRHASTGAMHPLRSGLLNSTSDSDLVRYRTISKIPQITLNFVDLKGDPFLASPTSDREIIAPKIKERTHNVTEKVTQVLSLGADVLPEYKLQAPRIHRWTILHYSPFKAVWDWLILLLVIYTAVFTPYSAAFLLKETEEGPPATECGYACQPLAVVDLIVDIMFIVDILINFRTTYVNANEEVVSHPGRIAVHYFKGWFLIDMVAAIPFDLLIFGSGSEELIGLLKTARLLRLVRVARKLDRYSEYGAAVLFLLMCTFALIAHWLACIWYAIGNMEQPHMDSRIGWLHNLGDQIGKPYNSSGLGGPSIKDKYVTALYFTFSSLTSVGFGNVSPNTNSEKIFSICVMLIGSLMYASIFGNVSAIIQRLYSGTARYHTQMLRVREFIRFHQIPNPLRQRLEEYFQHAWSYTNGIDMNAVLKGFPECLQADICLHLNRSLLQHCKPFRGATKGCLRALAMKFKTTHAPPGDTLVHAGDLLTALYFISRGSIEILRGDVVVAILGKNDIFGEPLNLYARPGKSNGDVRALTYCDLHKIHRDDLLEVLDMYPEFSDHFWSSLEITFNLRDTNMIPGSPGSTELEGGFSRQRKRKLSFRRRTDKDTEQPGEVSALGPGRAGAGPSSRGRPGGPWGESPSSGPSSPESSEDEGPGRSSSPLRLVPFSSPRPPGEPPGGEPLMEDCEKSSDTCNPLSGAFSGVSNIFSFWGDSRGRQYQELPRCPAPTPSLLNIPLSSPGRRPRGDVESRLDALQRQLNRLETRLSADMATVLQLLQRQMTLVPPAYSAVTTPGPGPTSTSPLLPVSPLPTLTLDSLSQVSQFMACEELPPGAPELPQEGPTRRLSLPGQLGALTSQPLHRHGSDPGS", "assay": "primary screen, population patch clamp on CHO cells stably expressing hERG", "units": {"hERG current change (%, negative = inhibition) at 10uM": "%"}, "values": [{"smiles": "Cc1cccc(NC2=NCC(=O)N2Cc2cccs2)c1.Cl", "hERG current change (%, negative = inhibition) at 10uM": 7.58}, {"smiles": "Cc1ccc(CS(=O)(=O)c2ncc(Cl)c(C(=O)Nc3ccc(OC(F)F)cc3)n2)cc1", "hERG current change (%, negative = inhibition) at 10uM": 5.68}, {"smiles": "COc1cc(C(=O)NCC(=O)N/N=C/c2c(C)[nH]c3ccccc23)cc(OC)c1OC", "hERG current change (%, negative = inhibition) at 10uM": 15.7}, {"smiles": "COc1ccc(Cl)cc1S(=O)(=O)N1CCC(C(=O)NC2CC2)CC1", "hERG current change (%, negative = inhibition) at 10uM": -3.03}, {"smiles": "COc1ccc(S(=O)(=O)N2CCC(NC(=O)c3ccccc3)CC2)cc1", "hERG current change (%, negative = inhibition) at 10uM": 17.8}, {"smiles": "CC(=O)NC(CC(=O)O)c1ccc(F)cc1", "note": "(centres unmarked)", "hERG current change (%, negative = inhibition) at 10uM": 0.22}, {"smiles": "C=C(C)CN(CC)C(=O)CC1C(=O)NCCN1C", "note": "(centres unmarked)", "hERG current change (%, negative = inhibition) at 10uM": 14.5}, {"smiles": "CC(=O)Nc1ccc(NC(=O)c2c([N+](=O)[O-])c(C(C)(C)C)nn2C)cc1", "hERG current change (%, negative = inhibition) at 10uM": -5.95}, {"smiles": "Cc1ccc(C)c(S(=O)(=O)NCc2ccc(C(=O)N3CCOCC3)cc2)c1", "hERG current change (%, negative = inhibition) at 10uM": -9.34}, {"smiles": "COc1ccc(/C=N/N2CCN(C3c4ccccc4-c4ccccc43)CC2)cc1O", "hERG current change (%, negative = inhibition) at 10uM": 7.09}, {"smiles": "CN(CCc1ccccn1)Cc1ccc(Cl)cc1Cl", "hERG current change (%, negative = inhibition) at 10uM": -64.3}, {"smiles": "COC(=O)c1cccc(NC(=S)NCCC2=CCCCC2)c1", "hERG current change (%, negative = inhibition) at 10uM": 11.3}, {"smiles": "CC(=O)c1ccc(NC(=O)COC(=O)c2c[nH]c3ccccc23)cc1", "hERG current change (%, negative = inhibition) at 10uM": 7.78}, {"smiles": "C=CCNC(=O)COC(=O)c1ccccc1C(=O)N(C)C1CCCCC1", "hERG current change (%, negative = inhibition) at 10uM": 5.15}, {"smiles": "O=C1C2C3CCCC3=C3CCCC3C2C(=O)N1c1ccccc1", "note": "(centres unmarked)", "hERG current change (%, negative = inhibition) at 10uM": 1.8}, {"smiles": "COC(=O)c1ccc(C(=O)OC)c(NC(=O)CN2CCCCC2)c1", "hERG current change (%, negative = inhibition) at 10uM": 7.62}, {"smiles": "CCc1nnc(NC(=O)CN2CCN(Cc3ccccc3Cl)CC2)s1", "hERG current change (%, negative = inhibition) at 10uM": 4.32}, {"smiles": "COc1ccc(C2CNC(=O)C2)cc1OC1CCCC1", "note": "(centres unmarked)", "hERG current change (%, negative = inhibition) at 10uM": -3.67}, {"smiles": "C/C(Cn1cnc([N+](=O)[O-])n1)=N\\NC(=O)c1ccc(Br)cc1", "hERG current change (%, negative = inhibition) at 10uM": -28.1}, {"smiles": "COc1cccc(/C=N/NC(=O)CSc2nnc(C)n2-c2ccccc2)c1O", "hERG current change (%, negative = inhibition) at 10uM": -9.22}, {"smiles": "CSc1nc(O)c(C(c2ccc(O)cc2)c2c(O)nc(SC)[nH]c2=O)c(=O)[nH]1", "hERG current change (%, negative = inhibition) at 10uM": 14.8}, {"smiles": "CCC(C)NCCCCOc1ccc(C)cc1[N+](=O)[O-].O=C(O)C(=O)O", "note": "(centres unmarked)", "hERG current change (%, negative = inhibition) at 10uM": -23}, {"smiles": "CCn1c(SCc2ccc(C#N)cc2)nnc1-c1ccc(S(=O)(=O)N2CCCCC2)cc1", "hERG current change (%, negative = inhibition) at 10uM": -70.7}, {"smiles": "C[C@H](NC(=O)CCC1CCC(=O)N1)c1ccccc1", "note": "(some centres unmarked)", "hERG current change (%, negative = inhibition) at 10uM": 12.3}, {"smiles": "CCN(CC)CCCN(C(=O)c1ccccc1C)c1nc(-c2ccc(OC)cc2)cs1", "hERG current change (%, negative = inhibition) at 10uM": -55.5}, {"smiles": "CCN(CC)S(=O)(=O)c1cccc(-c2nnc(SCCOc3ccccc3C)o2)c1", "hERG current change (%, negative = inhibition) at 10uM": -0.634}, {"smiles": "C=CCNC(=O)NC(=O)COC(=O)CNS(=O)(=O)c1ccc(F)c(F)c1F", "hERG current change (%, negative = inhibition) at 10uM": 20.4}, {"smiles": "O=C(O)CC/C(=N/NC(=O)CNC(=O)Cc1ccc(Cl)cc1)c1ccccc1", "hERG current change (%, negative = inhibition) at 10uM": 11.2}, {"smiles": "O=C(Nc1ccc(C(=O)NCCCN2CCCCC2)cc1)C1=CSCCO1", "hERG current change (%, negative = inhibition) at 10uM": 0.714}, {"smiles": "COc1ccc(NC(=O)CSc2nc(O)cc(=O)n2-c2ccccc2OC)cc1", "hERG current change (%, negative = inhibition) at 10uM": 22.1}, {"smiles": "Cc1ccc(C(C)C)c(OCC(=O)Nn2c(=O)[nH]c3ccccc3c2=O)c1", "hERG current change (%, negative = inhibition) at 10uM": -12.6}, {"smiles": "CC(C)Oc1cccc(C(=O)C2CCCN(C(=O)c3cncs3)C2)c1", "note": "(centres unmarked)", "hERG current change (%, negative = inhibition) at 10uM": -23.9}, {"smiles": "CN(C(=O)CC1C(=O)NCCN1Cc1ccc2ccccc2c1)C1CCOCC1", "note": "(centres unmarked)", "hERG current change (%, negative = inhibition) at 10uM": 1.19}, {"smiles": "COc1ccc(OCC(=O)O/N=C(\\N)Cc2cccs2)cc1", "hERG current change (%, negative = inhibition) at 10uM": 0.0915}, {"smiles": "Cc1ccccc1NC(=O)NC1CCCc2ccccc21", "note": "(centres unmarked)", "hERG current change (%, negative = inhibition) at 10uM": 26.2}, {"smiles": "N=c1c(C(=O)NCC2CCCO2)cc2c(=O)n3ccccc3nc2n1Cc1ccco1", "note": "(centres unmarked)", "hERG current change (%, negative = inhibition) at 10uM": -78.7}, {"smiles": "Cc1ccc2c(c1)cc(CN(Cc1ccco1)S(=O)(=O)c1ccccc1)c1nnnn12", "hERG current change (%, negative = inhibition) at 10uM": -6.09}, {"smiles": "Cc1ccc(C)c(OCc2cc(C(=O)N3CCN(c4cnccn4)CC3)no2)c1", "hERG current change (%, negative = inhibition) at 10uM": -81.7}, {"smiles": "Clc1cccc(Cl)c1C[n+]1ccc2ccccc2c1.[Br-]", "hERG current change (%, negative = inhibition) at 10uM": 22.2}, {"smiles": "COc1ccc([C@H]2CC(=O)C=C(c3ccc(C)cc3)C2)cc1OC", "hERG current change (%, negative = inhibition) at 10uM": 12.7}, {"smiles": "CCCCn1c(SCC(=O)Nc2ccccc2C(F)(F)F)nc2ccsc2c1=O", "hERG current change (%, negative = inhibition) at 10uM": 2.61}, {"smiles": "Oc1ccc(/C=N/n2c(-c3ccccc3)n[nH]c2=S)cc1", "hERG current change (%, negative = inhibition) at 10uM": 19.2}, {"smiles": "CCn1c(O)c(/C=N/NC(=O)c2ccccc2)c(=O)[nH]c1=S", "hERG current change (%, negative = inhibition) at 10uM": 13.5}, {"smiles": "NC(=O)Cn1nnc(-c2ccc(C(F)(F)F)cc2)n1", "hERG current change (%, negative = inhibition) at 10uM": -4.44}]}]}
